Test results reported in the RNAGym collection of RNA variant scans (doi:10.1101/gad.245936.114).
This sample is rich in variants without activity.

B1: tRNA (parent)
chain: CUCUCGGUAGCCAAGUUGGUUUAAGGCGCAAGACUUUAAUUUAUCACUACGAAAUCUUGAGAUCGGGCGUUCGACUCGCCCCCGGGAGAUUUUUUCCUCGAGCAA

Variants of: B1
Test: nonsense suppression (GFP-seq) (ratio to wild type); higher = more function; SUP4oc tRNA, yeast GFP reporter sort-seq
Method in brief: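 Sorted GFP/RFP bins of yeast were each Illumina-sequenced with a phred ≥30 cutoff; the cells held a genome-integrated ochre-suppressor tRNA variant from a library with ~3% random mutations, a galactose-driven GFP ochre reporter, and RFP. Culture was in raffinose/galactose medium containing 80 mg/L adenine. Nonsense suppression, termed GFPSEQ, is the median GFP/RFP of the bins weighted by each variant's estimated cell share per bin, relative to the unmutated parent tRNA, for variants reaching ≥100 reads and ≥30 cells.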

Nonsense suppression, 0.0687:
CUCUCGGUAGCCAAGUUGGUUUAAGGCGCAAGACUUUAAUUUAUCACUACGAAAUCUUGAGAUCGGGCGUUCGACUCGUCCCCGGCAGAUUUUUUCCUCGAGCAA [C79U G86C]

Nonsense suppression, 0.035:
CUCUCGGUAGCCAAGUUGGUUUAAGGCGCAAGACUUUAAUUUAUCACUACGAAAUCUUGAGAUCGGGCGUUCGACUCGCUCCCGGGUGAUUUUUUCCUCGAGCAA [C80U A87U]

Nonsense suppression, 0.733:
CUCUCGGUAGCCAAGUUGGUUUAAGGCGCAAGACUUUAAUUUAUCACUACGAAAUCUUGAGAUCGGGCGUUCGACUCGCUCCCGAGAGAUUUUUUCCUCGAGCAA [C80U G85A]

Nonsense suppression, ≤ 0.026:
CUCUCGGUAGCCAAGUUGGUUUAAGGCGCAAGACUUUAAUUUAUCACUACGAAAUCUUGAGAUCGGGCGUUCGACUCGGCCCCGGGAGAUUUUUUCCUCGAGCAA [C79G]
CUCUCGGUAGCCAAGUUGGUUUAAGGCGCAAGACUUUAAUUUAUCACUACGAAAUCUUGAGAUCGGGCGUUCGACUCGGGCCCGGGAGAUUUUUUCCUCGAGCAA [C79G C80G]
CUCUCGGUAGCCAAGUUGGUUUAAGGCGCAAGACUUUAAUUUAUCACUACGAAAUCUUGAGAUCGGGCGUUCGACUCGGUCCCGGGAGAUUUUUUCCUCGAGCAA [C79G C80U]
CUCUCGGUAGCCAAGUUGGUUUAAGGCGCAAGACUUUAAUUUAUCACUACGAAAUCUUGAGAUCGGGCGUUCGACUCGGUCCCGGAAGAUUUUUUCCUCGAGCAA [C79G C80U G86A]
CUCUCGGUAGCCAAGUUGGUUUAAGGCGCAAGACUUUAAUUUAUCACUACGAAAUCUUGAGAUCGGGCGUUCGACUCGGCCCUGGGAGAUUUUUUCCUCGAGCAA [C79G C83U]
CUCUCGGUAGCCAAGUUGGUUUAAGGCGCAAGACUUUAAUUUAUCACUACGAAAUCUUGAGAUCGGGCGUUCGACUCGUCGCCGGGAGAUUUUUUCCUCGAGCAA [C79U C81G]
CUCUCGGUAGCCAAGUUGGUUUAAGGCGCAAGACUUUAAUUUAUCACUACGAAAUCUUGAGAUCGGGCGUUCGACUCGUCCGCGGGAGAUUUUUUCCUCGAGCAA [C79U C82G]
CUCUCGGUAGCCAAGUUGGUUUAAGGCGCAAGACUUUAAUUUAUCACUACGAAAUCUUGAGAUCGGGCGUUCGACUCGUCCGCGGGAGUUUUUUUCCUCGAGCAA [C79U C82G A89U]
CUCUCGGUAGCCAAGUUGGUUUAAGGCGCAAGACUUUAAUUUAUCACUACGAAAUCUUGAGAUCGGGCGUUCGACUCGUCCCCUGGAGAUUUUUUCCUCGAGCAA [C79U G84U]
CUCUCGGUAGCCAAGUUGGUUUAAGGCGCAAGACUUUAAUUUAUCACUACGAAAUCUUGAGAUCGGGCGUUCGACUCGCACCCGGGGGAUUUUUUCCUCGAGCAA [C80A A87G]
CUCUCGGUAGCCAAGUUGGUUUAAGGCGCAAGACUUUAAUUUAUCACUACGAAAUCUUGAGAUCGGGCGUUCGACUCGCACCCGUGAGAUUUUUUCCUCGAGCAA [C80A G85U]
CUCUCGGUAGCCAAGUUGGUUUAAGGCGCAAGACUUUAAUUUAUCACUACGAAAUCUUGAGAUCGGGCGUUCGACUCGCACCCGGGAUAUUUUUUCCUCGAGCAA [C80A G88U]
CUCUCGGUAGCCAAGUUGGUUUAAGGCGCAAGACUUUAAUUUAUCACUACGAAAUCUUGAGAUCGGGCGUUCGACUCGCGCCUGGGAGAUUUUUUCCUCGAGCAA [C80G C83U]
CUCUCGGUAGCCAAGUUGGUUUAAGGCGCAAGACUUUAAUUUAUCACUACGAAAUCUUGAGAUCGGGCGUUCGACUCGCGCCCGAGAGAUUUUUUCCUCGAGCAA [C80G G85A]
CUCUCGGUAGCCAAGUUGGUUUAAGGCGCAAGACUUUAAUUUAUCACUACGAAAUCUUGAGAUCGGGCGUUCGACUCGCUGCCGGGAGAUUUUUUCCUCGAGCAA [C80U C81G]
CUCUCGGUAGCCAAGUUGGUUUAAGGCGCAAGACUUUAAUUUAUCACUACGAAAUCUUGAGAUCGGGCGUUCGACUCGCUCGCCGGAGAUUUUUUCCUCGAGCAA [C80U C82G G84C]
CUCUCGGUAGCCAAGUUGGUUUAAGGCGCAAGACUUUAAUUUAUCACUACGAAAUCUUGAGAUCGGGCGUUCGACUCGCUCCAGGGAGAUUUUUUCCUCGAGCAA [C80U C83A]
CUCUCGGUAGCCAAGUUGGUUUAAGGCGCAAGACUUUAAUUUAUCACUACGAAAUCUUGAGAUCGGGCGUUCGACUCGCUCCGGGGAGAUUUUUUCCUCGAGCAA [C80U C83G]
CUCUCGGUAGCCAAGUUGGUUUAAGGCGCAAGACUUUAAUUUAUCACUACGAAAUCUUGAGAUCGGGCGUUCGACUCGCUCCCCGGAGAUUUUUUCCUCGAGCAA [C80U G84C]
CUCUCGGUAGCCAAGUUGGUUUAAGGCGCAAGACUUUAAUUUAUCACUACGAAAUCUUGAGAUCGGGCGUUCGACUCGCCACCGGGAGAUUUUUUCCUCGAGCAA [C81A]
CUCUCGGUAGCCAAGUUGGUUUAAGGCGCAAGACUUUAAUUUAUCACUACGAAAUCUUGAGAUCGGGCGUUCGACUCGCCACCGGGCGAUUUUUUCCUCGAGCAA [C81A A87C]
CUCUCGGUAGCCAAGUUGGUUUAAGGCGCAAGACUUUAAUUUAUCACUACGAAAUCUUGAGAUCGGGCGUUCGACUCGCCACCGGGUGAUUUUUUCCUCGAGCAA [C81A A87U]
CUCUCGGUAGCCAAGUUGGUUUAAGGCGCAAGACUUUAAUUUAUCACUACGAAAUCUUGAGAUCGGGCGUUCGACUCGCCACCGGGAGCUUUUUUCCUCGAGCAA [C81A A89C]
CUCUCGGUAGCCAAGUUGGUUUAAGGCGCAAGACUUUAAUUUAUCACUACGAAAUCUUGAGAUCGGGCGUUCGACUCGCCACAGGGAGAUUUUUUCCUCGAGCAA [C81A C83A]
CUCUCGGUAGCCAAGUUGGUUUAAGGCGCAAGACUUUAAUUUAUCACUACGAAAUCUUGAGAUCGGGCGUUCGACUCGCCACCUGGAGAUUUUUUCCUCGAGCAA [C81A G84U]
CUCUCGGUAGCCAAGUUGGUUUAAGGCGCAAGACUUUAAUUUAUCACUACGAAAUCUUGAGAUCGGGCGUUCGACUCGCCACCGGGAUAUUUUUUCCUCGAGCAA [C81A G88U]
CUCUCGGUAGCCAAGUUGGUUUAAGGCGCAAGACUUUAAUUUAUCACUACGAAAUCUUGAGAUCGGGCGUUCGACUCGCCGCCGGGAGAUUUUUUCCUCGAGCAA [C81G]
CUCUCGGUAGCCAAGUUGGUUUAAGGCGCAAGACUUUAAUUUAUCACUACGAAAUCUUGAGAUCGGGCGUUCGACUCGCCGCCCGGAGAUUUUUUCCUCGAGCAA [C81G G84C]
CUCUCGGUAGCCAAGUUGGUUUAAGGCGCAAGACUUUAAUUUAUCACUACGAAAUCUUGAGAUCGGGCGUUCGACUCGCCGCCGGGAAAUUUUUUCCUCGAGCAA [C81G G88A]
CUCUCGGUAGCCAAGUUGGUUUAAGGCGCAAGACUUUAAUUUAUCACUACGAAAUCUUGAGAUCGGGCGUUCGACUCGCCGCCGGGAUAUUUUUUCCUCGAGCAA [C81G G88U]
CUCUCGGUAGCCAAGUUGGUUUAAGGCGCAAGACUUUAAUUUAUCACUACGAAAUCUUGAGAUCGGGCGUUCGACUCGCCUCAGGGAGAUUUUUUCCUCGAGCAA [C81U C83A]
CUCUCGGUAGCCAAGUUGGUUUAAGGCGCAAGACUUUAAUUUAUCACUACGAAAUCUUGAGAUCGGGCGUUCGACUCGCCCACGGGGGAUUUUUUCCUCGAGCAA [C82A A87G]
CUCUCGGUAGCCAAGUUGGUUUAAGGCGCAAGACUUUAAUUUAUCACUACGAAAUCUUGAGAUCGGGCGUUCGACUCGCCCACGGGUGAUUUUUUCCUCGAGCAA [C82A A87U]
CUCUCGGUAGCCAAGUUGGUUUAAGGCGCAAGACUUUAAUUUAUCACUACGAAAUCUUGAGAUCGGGCGUUCGACUCGCCCACGGGAGUUUUUUUCCUCGAGCAA [C82A A89U]
CUCUCGGUAGCCAAGUUGGUUUAAGGCGCAAGACUUUAAUUUAUCACUACGAAAUCUUGAGAUCGGGCGUUCGACUCGCCCACGGAAGAUUUUUUCCUCGAGCAA [C82A G86A]
CUCUCGGUAGCCAAGUUGGUUUAAGGCGCAAGACUUUAAUUUAUCACUACGAAAUCUUGAGAUCGGGCGUUCGACUCGCCCACGGUAGAUUUUUUCCUCGAGCAA [C82A G86U]
CUCUCGGUAGCCAAGUUGGUUUAAGGCGCAAGACUUUAAUUUAUCACUACGAAAUCUUGAGAUCGGGCGUUCGACUCGCCCACGGGAAAUUUUUUCCUCGAGCAA [C82A G88A]
CUCUCGGUAGCCAAGUUGGUUUAAGGCGCAAGACUUUAAUUUAUCACUACGAAAUCUUGAGAUCGGGCGUUCGACUCGCCCACGGGAUAUUUUUUCCUCGAGCAA [C82A G88U]
CUCUCGGUAGCCAAGUUGGUUUAAGGCGCAAGACUUUAAUUUAUCACUACGAAAUCUUGAGAUCGGGCGUUCGACUCGCCCGUAGGAGAUUUUUUCCUCGAGCAA [C82G C83U G84A]
CUCUCGGUAGCCAAGUUGGUUUAAGGCGCAAGACUUUAAUUUAUCACUACGAAAUCUUGAGAUCGGGCGUUCGACUCGCCCGCGCGAGAUUUUUUCCUCGAGCAA [C82G G85C]
CUCUCGGUAGCCAAGUUGGUUUAAGGCGCAAGACUUUAAUUUAUCACUACGAAAUCUUGAGAUCGGGCGUUCGACUCGCCCUGGGGAGAUUUUUUCCUCGAGCAA [C82U C83G]
CUCUCGGUAGCCAAGUUGGUUUAAGGCGCAAGACUUUAAUUUAUCACUACGAAAUCUUGAGAUCGGGCGUUCGACUCGCCCCAGGGAGGUUUUUUCCUCGAGCAA [C83A A89G]
CUCUCGGUAGCCAAGUUGGUUUAAGGCGCAAGACUUUAAUUUAUCACUACGAAAUCUUGAGAUCGGGCGUUCGACUCGCCCCACGGAGAUUUUUUCCUCGAGCAA [C83A G84C]
CUCUCGGUAGCCAAGUUGGUUUAAGGCGCAAGACUUUAAUUUAUCACUACGAAAUCUUGAGAUCGGGCGUUCGACUCGCCCCAGCGAGAUUUUUUCCUCGAGCAA [C83A G85C]
CUCUCGGUAGCCAAGUUGGUUUAAGGCGCAAGACUUUAAUUUAUCACUACGAAAUCUUGAGAUCGGGCGUUCGACUCGCCCCAGGCAGAUUUUUUCCUCGAGCAA [C83A G86C]

Nonsense suppression, 0.0642:
CUCUCGGUAGCCAAGUUGGUUUAAGGCGCAAGACUUUAAUUUAUCACUACGAAAUCUUGAGAUCGGGCGUUCGACUCGCCUCCAGGAGAUUUUUUCCUCGAGCAA [C81U G84A]

Nonsense suppression, 0.879:
CUCUCGGUAGCCAAGUUGGUUUAAGGCGCAAGACUUUAAUUUAUCACUACGAAAUCUUGAGAUCGGGCGUUCGACUCGUCCCCGGGAGAUUUUUUCCUCGAGCAA [C79U]

Nonsense suppression, 0.125:
CUCUCGGUAGCCAAGUUGGUUUAAGGCGCAAGACUUUAAUUUAUCACUACGAAAUCUUGAGAUCGGGCGUUCGACUCGCUCCCAGGAGAUUUUUUCCUCGAGCAA [C80U G84A]

Nonsense suppression, 0.99:
CUCUCGGUAGCCAAGUUGGUUUAAGGCGCAAGACUUUAAUUUAUCACUACGAAAUCUUGAGAUCGGGCGUUCGACUCGCCCUCGAGAGAUUUUUUCCUCGAGCAA [C82U G85A]

Nonsense suppression, 0.0501:
CUCUCGGUAGCCAAGUUGGUUUAAGGCGCAAGACUUUAAUUUAUCACUACGAAAUCUUGAGAUCGGGCGUUCGACUCGCCUCCGGGAUAUUUUUUCCUCGAGCAA [C81U G88U]

Nonsense suppression, 1.16:
CUCUCGGUAGCCAAGUUGGUUUAAGGCGCAAGACUUUAAUUUAUCACUACGAAAUCUUGAGAUCGGGCGUUCGACUCGCCUCCGGGAGAUUUUUUCCUCGAGCAA [C81U]
